# Source: the supplement of paper PMC8728848
# Some of the results follow.
# B1: PX9937J-pdi-523-26-523 (Parabacteroides distasonis) (protein)
# chain: EPVSSISDANYWKSPDLFKAFNIGLHGLLRSQSSYNIFVLGEPRSDIYGDQPFGGEATQGVERFSYNTINAEFTGISNFANFYTTLNQINLMIRRTNETDLLGEAEKNYYLGQAYGLRAYIYFHLLRSWGDVIITTEPTLGSELDISHLDKAASPASEVMDLIKKDIDASEKAFGGDYSYKQGKCYWSKPATLMLKGEVYLWSGRQMGGGTGDYTVAKTALQDLQQNGNLKLQEKFTDVFSFNNKENSEMIFALHSGKEDDFMMWRDYNWRNNMVPQREYMAGYCDETGTPFLEIPGYNLQGLMRYQVKKDHYLKSFREGDTRLKGTLKAVYKKHEDGTLEYIAPIQYKFQGTTLEGSNERSWYDDYPIYRYADALLLLAEAKALLGEDPSTEINAVRERAYGSEYFNAHKNEVAYPNDKGSFYNDNPFEAGDENVMEAILKERLREFFFEGKRWYDLRRFGKDYVLKYTTAQESRLLWPINEGALTNNPALKQTPGY
# Columns and labels:
# Assay in all cases: glycan array binding signal (z-score within array); higher = stronger binding
# Details in all cases: glycan notation: IUPAC condensed, linker removed
# [1] = biological target: Man(a1-2)Man(a1-3)[Man(a1-2)Man(a1-6)]Man(a1-6)[Man(a1-2)Man(a1-2)Man(a1-3)]Man
# Procedure, shortened: (§1)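 Columns mapping to the same glycan were averaged after glycan names were converted to IUPAC-condensed notation. The data come from 3228 arrays in the Consortium for Functional Glycomics database, limited to those with an available protein sequence. Binding is reported as a within-array Z-score averaged across arrays of one protein sequence and across linkers.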
# [2] = biological target: Man(a1-2)Man(a1-3)[Man(a1-2)Man(a1-6)]Man(a1-6)[Man(a1-2)Man(a1-2)Man(a1-3)]Man(b1-4)GlcNAc(b1-4)GlcNAc
# Procedure, shortened: as §1
# [3] = biological target: Man(a1-2)Man(a1-3)[Man(a1-6)]Man(a1-6)[Man(a1-2)Man(a1-3)]Man(b1-4)GlcNAc(b1-4)GlcNAc
# Procedure, shortened: as §1
# [4] = biological target: Man(a1-2)Man(a1-6)[Man(a1-3)]Man(a1-6)[Man(a1-2)Man(a1-2)Man(a1-3)]Man
# Procedure, shortened: as §1
# [5] = biological target: Man(a1-2)Man(a1-6)[Man(a1-3)]Man(a1-6)[Man(a1-2)Man(a1-2)Man(a1-3)]Man(b1-4)GlcNAc(b1-4)GlcNAc
# Procedure, shortened: as §1
# [6] = biological target: Man(a1-3)[Man(a1-6)]Man
# Procedure, shortened: as §1
# [7] = biological target: Man(a1-3)[Man(a1-6)]Man(a1-6)[Man(a1-2)Man(a1-3)]Man(b1-4)GlcNAc(b1-4)GlcNAc
# Procedure, shortened: as §1
# [8] = biological target: Man(a1-3)[Man(a1-6)]Man(a1-6)[Man(a1-3)]Man
# Procedure, shortened: as §1
# [9] = biological target: Man(a1-3)[Man(a1-6)]Man(a1-6)[Man(a1-3)]Man(b1-4)GlcNAc(b1-4)GlcNAc
# Procedure, shortened: as §1
# [10] = biological target: Man(a1-3)[Man(a1-6)]Man(b1-4)GlcNAc(b1-4)GlcNAc
# Procedure, shortened: as §1
# [11] = biological target: Man(a1-3)[Man(a1-6)]Man(b1-4)GlcNAc(b1-4)[Fuc(a1-6)]GlcNAc
# Procedure, shortened: as §1
# [12] = biological target: Man(a1-6)Man
# Procedure, shortened: as §1
# [13] = biological target: Man(b1-4)GlcNAc
# Procedure, shortened: as §1
# [14] = biological target: MurNAc(b1-4)GlcNAc
# Procedure, shortened: as §1
# [15] = biological target: Neu5Ac(a2-3)Gal
# Procedure, shortened: as §1
# [16] = biological target: Neu5Ac(a2-3)Gal(b1-3)GalNAc
# Procedure, shortened: as §1
# [17] = biological target: Neu5Ac(a2-3)Gal(b1-3)GalNAc(b1-3)Gal(a1-4)Gal(b1-4)Glc
# Procedure, shortened: as §1
# [18] = biological target: Neu5Ac(a2-3)Gal(b1-3)GalNAc(b1-4)[Neu5Ac(a2-3)]Gal(b1-4)Glc
# Procedure, shortened: as §1
# [19] = biological target: Neu5Ac(a2-3)Gal(b1-3)GalNAc(b1-4)[Neu5Ac(a2-8)Neu5Ac(a2-3)]Gal(b1-4)Glc
# Procedure, shortened: as §1
# [20] = biological target: Neu5Ac(a2-3)Gal(b1-3)GalNAc6S
# Procedure, shortened: as §1
# [21] = biological target: Neu5Ac(a2-3)Gal(b1-3)GlcNAc
# Procedure, shortened: as §1
# [22] = biological target: Neu5Ac(a2-3)Gal(b1-3)GlcNAc(b1-2)Man
# Procedure, shortened: as §1
# [23] = biological target: Neu5Ac(a2-3)Gal(b1-3)GlcNAc(b1-2)Man(a1-3)[GlcNAc(b1-4)][Neu5Ac(a2-3)Gal(b1-3)GlcNAc(b1-2)Man(a1-6)]Man(b1-4)GlcNAc(b1-4)GlcNAc
# Procedure, shortened: as §1
# [24] = biological target: Neu5Ac(a2-3)Gal(b1-3)GlcNAc(b1-2)Man(a1-3)[Neu5Ac(a2-3)Gal(b1-3)GlcNAc(b1-2)Man(a1-6)]Man(b1-4)GlcNAc(b1-4)GlcNAc
# Procedure, shortened: as §1
# [25] = biological target: Neu5Ac(a2-3)Gal(b1-3)GlcNAc(b1-3)Gal(b1-3)GlcNAc
# Procedure, shortened: as §1
# [26] = biological target: Neu5Ac(a2-3)Gal(b1-3)GlcNAc(b1-3)Gal(b1-4)GlcNAc
# Procedure, shortened: as §1
# [27] = biological target: Neu5Ac(a2-3)Gal(b1-3)GlcNAc(b1-3)GalNAc
# Procedure, shortened: as §1
# [28] = biological target: Neu5Ac(a2-3)Gal(b1-3)GlcNAc(b1-4)Gal(b1-4)Glc
# Procedure, shortened: as §1
# [29] = biological target: Neu5Ac(a2-3)Gal(b1-3)GlcNAc(b1-6)GalNAc
# Procedure, shortened: as §1
# [30] = biological target: Neu5Ac(a2-3)Gal(b1-3)GlcNAc6S
# Procedure, shortened: as §1
# [31] = biological target: Neu5Ac(a2-3)Gal(b1-3)[Fuc(a1-4)]GlcNAc
# Procedure, shortened: as §1
# [32] = biological target: Neu5Ac(a2-3)Gal(b1-3)[Fuc(a1-4)]GlcNAc(b1-3)Gal(b1-3)[Fuc(a1-4)]GlcNAc
# Procedure, shortened: as §1
# [33] = biological target: Neu5Ac(a2-3)Gal(b1-3)[Fuc(a1-4)]GlcNAc(b1-3)Gal(b1-4)[Fuc(a1-3)]GlcNAc
# Procedure, shortened: as §1
# [34] = biological target: Neu5Ac(a2-3)Gal(b1-3)[GlcNAc(b1-6)]GalNAc
# Procedure, shortened: as §1
# [35] = biological target: Neu5Ac(a2-3)Gal(b1-3)[Neu5Ac(a2-6)]GalNAc
# Procedure, shortened: as §1
# [36] = biological target: Neu5Ac(a2-3)Gal(b1-3)[Neu5Ac(a2-6)]GlcNAc(b1-3)[Fuc(a1-3)[Gal(b1-4)]GlcNAc(b1-6)]Gal(b1-4)Glc
# Procedure, shortened: as §1
# [37] = biological target: Neu5Ac(a2-3)Gal(b1-3)]Neu5Ac(a2-3)Gal(b1-4)]GlcNAc
# Procedure, shortened: as §1
# [38] = biological target: Neu5Ac(a2-3)Gal(b1-4)Glc
# Procedure, shortened: as §1
# [39] = biological target: Neu5Ac(a2-3)Gal(b1-4)GlcNAc
# Procedure, shortened: as §1
# [40] = biological target: Neu5Ac(a2-3)Gal(b1-4)GlcNAc(b1-2)Man
# Procedure, shortened: as §1
# [41] = biological target: Neu5Ac(a2-3)Gal(b1-4)GlcNAc(b1-2)Man(a1-3)[GlcNAc(b1-4)][Neu5Ac(a2-3)Gal(b1-4)GlcNAc(b1-2)Man(a1-6)]Man(b1-4)GlcNAc(b1-4)GlcNAc
# Procedure, shortened: as §1
# [42] = biological target: Neu5Ac(a2-3)Gal(b1-4)GlcNAc(b1-2)Man(a1-3)[Neu5Ac(a2-3)Gal(b1-4)GlcNAc(b1-2)Man(a1-6)]Man(b1-4)GlcNAc(b1-4)GlcNAc
# Procedure, shortened: as §1
# [43] = biological target: Neu5Ac(a2-3)Gal(b1-4)GlcNAc(b1-2)Man(a1-3)[Neu5Ac(a2-3)Gal(b1-4)GlcNAc(b1-2)Man(a1-6)]Man(b1-4)GlcNAc(b1-4)[Fuc(a1-6)]GlcNAc
# Procedure, shortened: as §1
# [44] = biological target: Neu5Ac(a2-3)Gal(b1-4)GlcNAc(b1-2)Man(a1-3)[Neu5Ac(a2-6)Gal(b1-4)GlcNAc(b1-2)Man(a1-6)]Man(b1-4)GlcNAc(b1-4)GlcNAc
# Procedure, shortened: as §1
# [45] = biological target: Neu5Ac(a2-3)Gal(b1-4)GlcNAc(b1-2)[Neu5Ac(a2-3)Gal(b1-4)GlcNAc(b1-4)]Man(a1-3)[GlcNAc(b1-4)][Neu5Ac(a2-3)Gal(b1-4)GlcNAc(b1-2)[Neu5Ac(a2-3)Gal(b1-4)GlcNAc(b1-6)]Man(a1-6)]Man(b1-4)GlcNAc(b1-4)GlcNAc
# Procedure, shortened: as §1
binder,measurement,setting,value
B1,glycan array binding signal (z-score),[1],-0.317
same,glycan array binding signal (z-score),[2],-0.355
same,glycan array binding signal (z-score),[3],-0.697
same,glycan array binding signal (z-score),[4],-0.355
same,glycan array binding signal (z-score),[5],-0.628
same,glycan array binding signal (z-score),[6],-0.455
same,glycan array binding signal (z-score),[7],-0.614
same,glycan array binding signal (z-score),[8],0.449
same,glycan array binding signal (z-score),[9],-0.173
same,glycan array binding signal (z-score),[10],-0.151
same,glycan array binding signal (z-score),[11],-0.221
same,glycan array binding signal (z-score),[12],-0.432
same,glycan array binding signal (z-score),[13],-0.728
same,glycan array binding signal (z-score),[14],-0.776
same,glycan array binding signal (z-score),[15],-0.304
same,glycan array binding signal (z-score),[16],-0.052
same,glycan array binding signal (z-score),[17],-0.08
same,glycan array binding signal (z-score),[18],-0.459
same,glycan array binding signal (z-score),[19],0.146
same,glycan array binding signal (z-score),[20],-0.115
same,glycan array binding signal (z-score),[21],-0.225
same,glycan array binding signal (z-score),[22],0.722
same,glycan array binding signal (z-score),[23],-0.244
same,glycan array binding signal (z-score),[24],0.408
same,glycan array binding signal (z-score),[25],-1
same,glycan array binding signal (z-score),[26],-0.746
same,glycan array binding signal (z-score),[27],-0.231
same,glycan array binding signal (z-score),[28],-0.121
same,glycan array binding signal (z-score),[29],-0.794
same,glycan array binding signal (z-score),[30],-0.141
same,glycan array binding signal (z-score),[31],0.062
same,glycan array binding signal (z-score),[32],-0.657
same,glycan array binding signal (z-score),[33],-0.125
same,glycan array binding signal (z-score),[34],-0.593
same,glycan array binding signal (z-score),[35],0.071
same,glycan array binding signal (z-score),[36],0.553
same,glycan array binding signal (z-score),[37],-0.678
same,glycan array binding signal (z-score),[38],-0.103
same,glycan array binding signal (z-score),[39],-0.183
same,glycan array binding signal (z-score),[40],0.387
same,glycan array binding signal (z-score),[41],0.059
same,glycan array binding signal (z-score),[42],-0.559
same,glycan array binding signal (z-score),[43],-0.094
same,glycan array binding signal (z-score),[44],-0.747
same,glycan array binding signal (z-score),[45],0.333
